Measured values as given in PMC11995724, “Antibiotic target discovery by integrated phenotypic and activity-based profiling of electrophilic fragments” (Cell chemical biology, 2025).
Hit rate of the full screen: of about 3,200 compounds, about 75 (2%) showed an effect of 50% or more. The list shows a part of the results.

Tested on: T1, S. aureus MSSA476
T1 construct: MSSA476
Set-up: species or system S. aureus MSSA476 (TSB) or V. cholerae SAD30 (LB); 384-well bacterial growth screen at 25 uM, OD600 relative to DMSO control
Conditions: relative growth, OD600, TSB; 25 µM; inhibitor

| SMILES | % of control remaining |
| --- | --- |
| Cc1ccsc1C=C(C#N)C(=O)NC1CCCCC1C (stereo not drawn) [8-G07, 2-cyano-N-(2-methylcyclohexyl)-3-(3-methylthiophen-2-yl)prop-2-enamide] | 80% |
| Cc1cc(C)c(NC(=O)C(C#N)=Cc2cc(F)ccc2F)c(C)c1 [8-A10, 2-cyano-3-(2,5-difluorophenyl)-N-(2,4,6-trimethylphenyl)prop-2-enamide] | 81.9917% |
| C=CC(=O)N1CCc2nn(C(C)C)c(=O)cc2C1 [3-B22, 6-(prop-2-enoyl)-2-(propan-2-yl)-2H,3H,5H,6H,7H,8H-pyrido[4,3-c]pyridazin-3-one] | 137.571% |
| N#CC(=Cc1cc(C#N)cs1)C(=O)NC(N)=O [8-F04, {2-cyano-2-[(4-cyanothiophen-2-yl)methylidene]acetyl}urea] | 77.3444% |
| O=C(CCl)NCC(=O)Nc1nccs1 [5-G22, 2-chloro-N-{[(1,3-thiazol-2-yl)carbamoyl]methyl}acetamide] | 86.3388% |
| CC(Cl)C(=O)Nc1ccc2c(c1)OCCCO2 (stereo not drawn) [4-K10, 2-chloro-N-(3,4-dihydro-2H-1,5-benzodioxepin-7-yl)propanamide] | 112.053% |
| COc1ccc(N(Cc2cccs2)C(=O)CCl)cc1 [5-O17, 2-chloro-N-(4-methoxyphenyl)-N-[(thiophen-2-yl)methyl]acetamide] | 86.7031% |
| C=CC(=O)Nc1cc(S(=O)(=O)N2CCCCCC2)ccc1OC [1-A15, N-[5-(azepane-1-sulfonyl)-2-methoxyphenyl]prop-2-enamide] | 132.22% |
| CNC(=O)c1ccn(C2CCCN(C(=O)CCl)C2)n1 (stereo not drawn) [5-I08, 1-[1-(2-chloroacetyl)piperidin-3-yl]-N-methyl-1H-pyrazole-3-carboxamide] | 84.5173% |
| CC(Cl)C(=O)N1CCN(c2nnnn2-c2ccccc2)CC1 (stereo not drawn) [7-I12, 2-chloro-1-[4-(1-phenyl-1H-1,2,3,4-tetrazol-5-yl)piperazin-1-yl]propan-1-one] | 106.436% |
| C=CC(=O)N1CCN(S(=O)(=O)c2ccc(C(C)(C)C)cc2)CC1 [3-A19, 1-[4-(4-tert-butylbenzenesulfonyl)piperazin-1-yl]prop-2-en-1-one] | 138.964% |
| CC(Cl)C(=O)N1C[C@@H]2CCC[C@@]2(c2nc(-c3cnccn3)no2)C1 (mixture of isomers) [7-C03, rac-1-[(3aR,6aR)-3a-[3-(pyrazin-2-yl)-1,2,4-oxadiazol-5-yl]-octahydrocyclopenta[c]pyrrol-2-yl]-2-chloropropan-1-one] | 75.3532% |
